Data set [1] deals with the molecule itself. Put plainly: cross-linking; 10 μM FLAG-tagged DR5L ECD without peptide, 100 μM BS3 for 20 min at RT, 20 mM HEPES pH 7.2, 150 mM NaCl; anti-FLAG blot.
A further data set concerns the target T1, MPZ-ecto peptide (human).
T1 construct: stretch of the ectodomain of human myelin protein zero; The array spots are 18-residue peptides; also called spots C18-C19 of the peptide array; source: synthetic peptide, GenScript (>95% purity); as spots C18-C19 on the peptide array of the MIT Biopolymers Laboratory
T1 peptide: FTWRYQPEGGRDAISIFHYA
The data set is described as follows: other fluorescence titration; fluorescence de-quenching: AlexaFluor647-DR5L ECD (200 nM) pre-incubated with 100 μM or 200 μM MPZ-ecto peptide, increasing concentrations of unlabeled DR5L ECD. As to conditions: both partners purified.

B1: FLAG-tagged DR5 long isoform ECD (domain or fragment)
chain: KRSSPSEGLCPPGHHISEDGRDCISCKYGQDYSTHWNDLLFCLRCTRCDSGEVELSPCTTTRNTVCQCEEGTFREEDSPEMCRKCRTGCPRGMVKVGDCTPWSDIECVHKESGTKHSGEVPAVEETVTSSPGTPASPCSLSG
notes: human DR5 ECD, long isoform, […]; Dimer without peptide by cross-linking; multimers with peptide; also called FLAG-tagged DR5L ECD; recombinant DR5L ECD; source: SF21 (baculovirus), secreted, purified (HisTrapFF, SuperDex200); not shown: FLAG, C-terminal, kept
Regarding B1, in data set [1], the “stoichiometry N” value turned out to be 2.

B2: unlabeled DR5L ECD (domain or fragment)
chain: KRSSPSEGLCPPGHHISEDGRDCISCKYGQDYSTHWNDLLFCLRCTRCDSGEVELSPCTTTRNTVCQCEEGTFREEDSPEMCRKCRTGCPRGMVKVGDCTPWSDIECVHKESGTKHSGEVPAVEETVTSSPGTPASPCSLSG
notes: human DR5 ECD, long isoform, […]; also called unlabeled DR5 ECD; source: SF21 (baculovirus), secreted, purified (HisTrapFF, SuperDex200)
With B2, the binding result with MPZ-ecto peptide is given as “binds”.

The term stoichiometry N denotes the number of molecules, sites or subunits per partner or assembly.

The values above are taken from PMC7041945, “Misfolded proteins bind and activate death receptor 5 to trigger apoptosis during unresolved endoplasmic reticulum stress” (eLife, 2020).
